Data reported in PubChem BioAssay AID1745853 (National Center for Advancing Translational Sciences (NCATS), 2022).
Some of the results follow. These are further read-outs of the screen, such as a control signal, another cell line or another target. No call is given for them.

Legend:
Test in all cases: Primary Screen for Target Class Profiling of Small Molecule Inhibitors of Methyltransferases
[1] = biological target: Glycine N-methyltransferase (Homo sapiens) (UniProt Q14749); settings: purified enzyme, MTase-Glo SAH luminescence; measured here: GNMT inhibition; at 40 µM; stronger effect = lower value
Procedure, shortened: (§1)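 Each enzyme was reacted with SAM and its substrate, with compounds tested once at 40 uM; SAH formed was read by MTase-Glo luminescence.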

[2] = biological target: Guanidinoacetate N-methyltransferase (Homo sapiens) (UniProt Q14353); settings: purified enzyme, MTase-Glo SAH luminescence; measured here: GAMT inhibition; at 40 µM; stronger effect = lower value
Procedure, shortened: as §1

[3] = biological target: Histamine N-methyltransferase (Homo sapiens) (UniProt P50135); settings: purified enzyme, MTase-Glo SAH luminescence; measured here: HNMT inhibition; at 40 µM; stronger effect = lower value
Procedure, shortened: as §1

[4] = biological target: Nicotinamide N-methyltransferase (Homo sapiens) (UniProt P40261); settings: purified enzyme, MTase-Glo SAH luminescence; measured here: NNMT inhibition; at 40 µM; stronger effect = lower value
Procedure, shortened: as §1

[5] = biological target: Phenylethanolamine N-methyltransferase (Homo sapiens) (UniProt P11086); settings: purified enzyme, MTase-Glo SAH luminescence; measured here: PNMT inhibition; at 40 µM; stronger effect = lower value
Procedure, shortened: as §1
% is set by controls: 0 for no effect and ±100 for the full control effect.

Compound | activity change, negative = inhibition [1] [%] | activity change, negative = inhibition [2] [%] | activity change, negative = inhibition [3] [%] | activity change, negative = inhibition [4] [%] | activity change, negative = inhibition [5] [%]
COc1ccc(-c2cc3c(C)nc(N)nc3n(C3CCC(OCCO)CC3)c2=O)cn1 (configuration not stated) | -0.891 | -2.44 | 3.29 | -13.5 | 1.4
CCn1ccn2c(-c3ccccc3)nc(C)c2c1=O | -3.03 | -0.049 | -3.25 | -7.5 | -1.19
O=C1CC(c2ccccc2)N(C(=O)CNC(=O)c2n[nH]c3ccccc23)CCCCCCN1 (configuration not stated) | -5.35 | -0.355 | 0.498 | -5.39 | -1.85
Cc1nc(CCNC(=O)[C@H]2CCC[C@H](O)C2)nc2c1CCC2 | -4.4 | -0.894 | -0.222 | -1.49 | -0.917
CN(C)C(=O)N1CCCn2nc(CNC(=O)C(=O)c3ccco3)cc2C1 | -0.277 | -1.73 | 1.04 | -5.62 | -4.51
C=CCN1CCN(C(=O)[C@@]23CCCC[C@H]2N(CCC(C)C)C(=O)CC3)CC1 | -1.2 | -0.692 | 1.05 | 1.42 | 4.49
COc1cc(Nc2nc3ccccc3nc2NS(=O)(=O)c2ccc(NC(=O)c3ccc(C)c(OC)c3)cc2)cc(OC)c1 | 3.77 | -27.7 | 11.1 | -43.9 | -14.5
Cc1ccccc1-n1c(Cn2nc(-c3cccc(O)c3)c3c(N)ncnc32)nc2cccc(C)c2c1=O | -11.6 | -0.897 | -0.389 | -50.4 | -1.75
N=C(N)c1ccc2nc(-c3cc(CC(=O)NC(CC(=O)O)C(=O)O)cc(-c4cc(S(N)(=O)=O)ccc4O)c3O)[nH]c2c1 (configuration not stated) | 0.757 | 2.09 | 10.9 | -13.3 | 3.47
O=C(CCCc1ccccc1)N1CCCCCC1c1nc(C2CC2)no1 (configuration not stated) | -1.92 | -4.08 | 0.355 | -2.08 | -1.82
CN(CCN1C(=O)c2cc3occc3n2CC1(C)C(=O)NC1CCCCC1)C1CCCCC1 (configuration not stated) | 5.87 | 0 | 4.53 | 7.12 | 6.21
Cc1ccc(-c2noc([C@@H]3Cc4nc[nH]c4CN3Cc3cccs3)n2)cc1 | -11.3 | -8.87 | -20.3 | -42.6 | -2.52
COc1ccccc1-c1c[nH]c2ncc(-c3cncc(C(=O)N(C)C)c3)cc12 | -21.3 | -4.79 | -29.1 | -38.7 | -15.2
CC(C)c1cc(CN2CCC(N3CCC(C(=O)NCc4ccccn4)CC3)CC2)[nH]n1 | -3.2 | -8.74 | -8.51 | -12.6 | -4.34
O=C(N[C@@H]1CN(Cc2c[nH]c3ccccc23)C[C@H]1CO)c1ccccc1 | -3.75 | -2.32 | -21.2 | -8 | 19.2
Cn1cncc1CNC(=O)c1nc(-c2cccc(N3CCOCC3)c2)cc2c1ccn2C | -13.3 | -6.63 | -15.7 | -8.48 | -15.4
CC1(C)CC[C@]2(C(=O)O)CC[C@]3(C)C(=CCC4[C@@]5(C)C[C@@H](O)[C@H](O)C(C)(C)C5CC[C@]43C)C2C1 (some centres not stated) | -5.96 |  | 11 |  | 
COc1ccc(-c2nnn3c2nc(NCc2ccccc2Cl)c2ccccc23)cc1 | 2.24 | 5.62 | 7.63 | 1.53 | 1.9
Cc1ccccc1N1Cc2c(NC3CCCCCC3)ncnc2N(C)CC1=O | -7.7 | -10.9 | -1.52 | -18.2 | -2.05
O=C1CCc2cc(OCCCCc3nnnn3C3CCCCC3)ccc2N1 | -6.11 | 6.23 | 2.41 | -11.9 | 5.57
COC(=O)c1cc2n(n1)CC(C)(C(=O)NC1CCCCC1)N(c1ccc(Cl)cc1)C2=O (configuration not stated) | -0.707 | 3.84 | -0.141 | 4.82 | 2.69
CC(C)CNC(=O)c1ccc2c(=O)n(C(C)C)c3nn(Cc4ccc(F)cc4)c(=O)n3c2c1 | -1.86 | 0 | 1.82 | 0.654 | 1.25
CC1(C(=O)NCc2ccccc2)Cn2c(cc3ccccc32)C(=O)N1Cc1ccc2c(c1)OCO2 (configuration not stated) | -6 | -1.17 | 0.249 | -16.4 | -2.77
COc1cccc(N2C(=O)NC(=NC3CCCC3)C23CCN(Cc2ccccc2)C3)c1 (configuration not stated) | -12.2 | 0.163 | -1.29 | -10.9 | -0.783
N#C[C@@H]1C[C@@H]2C[C@@H]2N1C(=O)[C@@H](N)C12CC3CC(CC(O)(C3)C1)C2 | -2.57 | -11.6 | 5.07 | -16.4 | -1.63
CC(C)(O)C1OC1C1=CC(=O)C2(C)OC2C1O (configuration not stated) | 2.79 | 4.58 | 9.98 | -6.29 | 4.85
COc1ccccc1CNC(=O)C1(C)Cn2nc(-c3ccccc3)cc2C(=O)N1CCc1ccc(Cl)cc1 (configuration not stated) | -7.53 | -0.582 | -6.67 | -8.79 | -4.78
CCCn1c(=O)c2ccc(C(=O)NC(C)CC)cc2n2c(SCC(=O)c3ccccc3)nnc12 (configuration not stated) | 2 | 4.91 | 5.51 | -6.55 | 3.64
CCc1cc2c(cc3n2CC(C)(C(=O)NC2CCCCC2)N(c2ccc(C)cc2C)C3=O)s1 (configuration not stated) | 2 | 0 | 9.63 | 12.5 | 3.24
